# From paper PMC12040169 (PLOS Biology, 2025)
# Some of the results follow.
# System: T1, C. trachomatis L2/434/Bu expressing GFP (CTL2-GFP)
# T1 construct: L2/434/Bu GFP intracellular growth in HeLa cells
# Parameters: species or system HeLa; C. trachomatis total inclusion area by high-content imaging, normalised to DMSO
# Conditions: total inclusion area; 28.5 h, 10 µM; inhibitor
# How it was run: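 Imaging read-out: GFP inclusions and Hoechst nuclei captured by high-content imaging after fixation. Inclusion area/number = chlamydial growth; nuclei count = host cell viability. MIC calculated per earlier method.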
row,SMILES,% of control remaining
1,CN(C)c1cccc2c(S(=O)(=O)n3c(=O)n(Cc4ccc(S(C)(=O)=O)cc4)c4ccccc43)cccc12 [CBK106535],98.9891
2,CC1(C)CC(=O)C(C(=S)Nc2ccccc2)=C(NCc2ccccc2)C1 [CBK264498],118.023
3,Nc1cccc(-c2cncc(N(CCO)CCO)n2)c1 [CBK065808],123.197
4,Cc1nc(C2CCN(C(=O)c3ccncc3)CC2)c2sccn12 [CBK282235],97.0415
5,OCCN1CC2(CCN(Cc3c(F)cccc3F)CC2)c2ccccc21 [CBK137010],103.589
6,OC(COCc1ccccc1)CN1CCN(c2ccccc2F)CC1 (stereo not drawn) [CBK074851C],96.348
7,Nc1ccc2ccc(-c3cccc(C(F)(F)F)c3)nc2n1 [CBK067629],110.032
8,Cc1cccc(Cn2cnc(NC(=O)Nc3cccc(Cl)c3C)n2)c1 [CBK266876],109.348
9,CCNc1cc(-c2ccc(N3CCOCC3)cc2)ncn1 [CBK090876],97.5078
10,COc1ccc(C(=O)Nc2ccccc2-c2nc3ccccc3s2)cc1OC [CBK266376],139.341
11,Clc1cncc(-c2ccccc2)n1 [CBK113371],70.1342
12,CCS(=O)(=O)N1CCc2cc(C(=O)CSc3nnc(-c4ccco4)o3)ccc21 [CBK297126],70.7307
13,CS(=O)(=O)Nc1cccc(-c2cnc3[nH]c(=O)n(Cc4cccs4)c3n2)c1 [CBK064708],104.123
14,CCOc1cc(NC2CCN(C(=O)Cc3cc(C)on3)CC2)ncn1 [CBK304689],17.4781
15,Nc1ncc(-c2ccccc2)nc1-c1ccc(O)cc1 [CBK064030],103.705
16,Cn1cc(CNC(=O)Nc2cccc(CN3CCCCC3=O)c2)cn1 [CBK305062],59.4001
17,CC(C)(C)OC(=O)N1CCN(Cc2nnc(Cc3ccccc3)o2)CC1 [CBK306223],94.8433
18,CC(=O)Nc1ccc(-c2csc(Nc3ccc(S(=O)(=O)Nc4nc(C)cc(C)n4)cc3)n2)cc1 [CBK267295],86.7966
19,N#Cc1ccc(CNC(=O)N2CCN(Cc3ccccc3)CC2)cc1 [CBK155637],98.1554
20,COc1ccc(Cl)cc1NS(=O)(=O)N(C)C [CBK025794],76.1476
21,CCCSc1ccc2[nH]c(NC(=O)CSc3nc[nH]n3)nc2c1 [CBK270181],13.6568
22,Cc1ccc(C2(O)CCN(CCNC(=O)C3CCCC3)CC2)cc1 [CBK282606],115.768
23,Cc1nc(NS(=O)(=O)Cc2ccccc2)sc1C(=O)O [CBK045552],93.1779
24,O=C(O)c1cccc(-n2c(S)nnc2-c2ccncc2)c1 [CBK269260],97.2929
25,Nc1nc(OCc2ccccc2)cnc1-c1cccc(C(F)(F)F)c1 [CBK145179],105.264
26,COc1ccccc1N1CCN(CC2CN(c3ccccc3)c3ccccc3O2)CC1 (stereo not drawn) [CBK066872C],65.9959

row,SMILES,% of control remaining
1,CCOc1ccccc1C(=O)Nc1cnc(-c2cccc(C)c2)c(-c2ccc(N)cc2)n1 [CBK036783],133.707
2,Cc1ccc2nc(-c3ccc4c(c3)CCN4S(C)(=O)=O)cn2c1 [CBK285185],109.38
3,CSc1cccc(C(=O)Nc2sc3c(c2C#N)CCN(C(C)=O)C3)c1 [CBK304390],3.276
4,CC(=O)NC[C@H]1C[C@@H]2CCN1C[C@@H]2c1cc(-c2ccco2)nc(C)n1 [CBK289128],83.5414
5,CCOc1ccc(C(=O)Nc2nonc2CC)cc1 [CBK287287],87.0365
6,O=c1[nH]ccn1CCNc1cc(-c2ccccc2Oc2ccccc2)ncn1 [CBK036966],59.0094
7,Cc1noc(C)c1CCC(=O)NCc1cccc(C#N)c1 [CBK305938],68.7725
8,CN(C)c1cccc(-c2cnc3[nH]c(=O)n(-c4ccc5[nH]ccc5c4)c3n2)c1 [CBK064682],103.512
9,CN1C(=O)COC[C@@H]1[C@H](O)c1ccc(NC(=O)C2CC2)cc1 [CBK289057],104.031
10,COCCNC(=O)c1ccc(-c2ccccc2C)nc1NC(C)=O [CBK106325],104.189
11,CC1(C)CC(=O)c2sc(NC(=O)c3cncnc3)nc2C1 [CBK144107],94.8046
12,O=C(c1ccco1)N1CCN(c2cc(-c3ccc(OCc4ccccc4)cc3)ncn2)CC1 [CBK037844],80.9693
13,COc1ccccc1/C=N/C12CN3CN(CN(C3)C1)C2 [CBK261387],97.582
14,Cc1c(C(=O)Nc2ccc(S(=O)(=O)N(C)Cc3ccccc3)cc2)cccc1[N+](=O)[O-] [CBK267534],84.5509
15,COC(=O)[C@@H]1Cc2ncn(C(C)C)c2CN1S(=O)(=O)c1ccc([N+](=O)[O-])cc1 [CBK288985],96.8545
16,Cc1ccc(S(=O)(=O)NCCNc2ccc([N+](=O)[O-])cc2C(F)(F)F)cc1 [CBK265140],70.6574
17,CC(CNC(=O)C1CCCC1)N1CCc2ccccc2C1 (stereo not drawn) [CBK304555],23.6533
18,O=C(NC1Cc2ccccc2C1)c1cccc(-c2ccc(CC3CCCNC3=O)cc2)c1 (stereo not drawn) [CBK285579],93.2757
19,Cc1[nH]c(=O)[nH]c(=S)c1C(=O)NCc1ccc(Cl)cc1 [CBK115489],88.8857
20,O=C(Nc1ccccc1)Nc1ccc2c(c1)S(=O)(=O)c1cc(NC(=O)Nc3ccccc3)ccc1-2 [CBK262320],73.6812
21,O=C(CSc1n[nH]c(=O)[nH]c1=O)N/N=C/c1ccc(O)cc1 [CBK263488],102.314
22,O=C(c1ccc([N+](=O)[O-])cc1)C12CN3CN(CN(C3)C1)C2 [CBK011238],103.396
23,CSc1cccc(NC(=O)CN(C)S(=O)(=O)c2ccc3ccccc3c2)c1 [CBK266708],77.0252
24,CN(C)S(=O)(=O)n1cc(/C=C/c2nc(N)nc(-c3ccccc3O)n2)c2ccccc21 [CBK268386],86.4219
25,CCNC(=S)N[C@@H]1CC[C@@]2(Cc3ccc(OC)c(OC)c3)CCN(C)[C@H]2C1 [CBK023811],71.1089
26,O=C(Cc1ccccc1)Nc1ncc(Cc2ccccc2)s1 [CBK287322],116.712

row,SMILES,% of control remaining
1,Cc1cnccc1-c1cn(C)nc1-c1ccc(CNC(=O)c2cccc(N(C)C)c2)cc1 [CBK285633],109.634
2,CCC(=O)N[C@H](CC)Cn1ncc2ccccc2c1=O [CBK284303],93.0716
3,O=c1sc(Nc2ccccc2)nc2ccsc12 [CBK287853],45.5528
4,Cc1cc(/C=C2/C(=N)N3N=C(Cc4ccccc4)SC3=NC2=O)c(C)n1-c1ccccc1 [CBK264318],100.238
5,CSCCC(=O)NCCc1c[nH]c2ccc(Cl)cc12 [CBK159775],109.317
6,COc1cc(CNc2nc(-c3ccc(C(C)(C)C)cc3)cn3ccnc23)cc(OC)c1OC [CBK066615],94.2241
7,c1ccc(CCNc2cc(-c3cccc4ccccc34)ncn2)nc1 [CBK037762],82.4873
8,CCc1noc(C)c1C(=O)N1CCN(C2CCCC2O)CC1 (stereo not drawn) [CBK304869],57.5192
9,Cc1cc2nccc([C@H]3CC[C@H](CNC(=O)C(C)C)CC3)n2n1 [CBK283475],88.4652
10,O=C(NC(=S)Nc1cccc(-c2nc3ncccc3o2)c1)c1ccc(-c2cccc([N+](=O)[O-])c2)o1 [CBK267870],125.035
11,Cc1ccc(NC(=O)CN2C(=O)S/C(=C\c3cc(C)n(-c4cccc(C(=O)O)c4)c3C)C2=O)cc1 [CBK264725],115.096
12,O=C(O)CCC(=O)NNC(=O)c1cccc(O)c1 [CBK262116],97.3392
13,Cc1ncsc1C(=O)N1CCC(c2cccc(Cc3ccccc3Cl)n2)CC1 [CBK286146],77.8595
14,COc1cc2c(cc1OC)CN(C(=O)c1cncnc1)CC2 [CBK122748],82.8573
15,CC1=C[C@@H](CNC(=O)Nc2ccccc2)[C@H](C(C)C)C[C@H]1CC(=O)N1CCN(C)CC1 [CBK289048],78.3511
16,COC1C(O)=CC(=O)OC1(CCc1ccco1)CCc1ccco1 (stereo not drawn) [CBK001858],134.708
17,O=S(=O)(O)c1cc(S(=O)(=O)O)c2cc(O)c(S(=O)(=O)O)cc2c1 [CBK278319N],89.9854
18,Cc1nn(C(C)C(=O)Nc2cc(C(F)(F)F)ccc2Cl)c(C)c1[N+](=O)[O-] (stereo not drawn) [CBK268697],99.018
19,O=C(Cc1ccccc1)Nc1nnc(Cc2ccc3c(c2)OCCO3)o1 [CBK287661],87.4196
20,COCCCNC(=O)Cn1c(-c2cccs2)cc2cccnc21 [CBK282559],120.027
21,O=C(NC1CCCC1)c1ccc(=O)[nH]c1 [CBK058093],71.108
22,CCC(CN1CCCC1)NC(=O)C1CC(=O)Nc2ccccc21 (stereo not drawn) [CBK282757],119.517
23,COc1ccc(S(=O)(=O)NC(CCSC)c2nnc3ccccn23)cc1 (stereo not drawn) [CBK304402],67.0509
24,COc1ccccc1-c1ccccc1CN(C)Cc1ccccc1N1CCOCC1 [CBK286000],98.136
25,COc1ccc(C2(CNC(C)(C)CN)CCCC2)cc1OC [CBK008989],3.209
26,O=C(COc1ccccc1[N+](=O)[O-])Nc1cc(C(=O)O)cc(C(=O)O)c1 [CBK263983],104.626
